Measurements as given in PubChem BioAssay AID588342 (National Center for Advancing Translational Sciences (NCATS), 2011).
Several values for one entry are separate records, joined by “and”; a condition that tells them apart may be missing. Identical values can stand only once. The campaign covered roughly 360,000 compounds. About 25,000 (6.9%) were called active. The shares of active, inactive and inconclusive entries below differ from those in the screen. Calls follow the shape of the dose curve; as a rule, active = well fitted inhibition curve with a large enough effect; inconclusive = small, poorly fitted or top-dose-only effect; inactive = flat fitted curve, though single readings scatter. A potency beside an inconclusive call is a rough fit, not a confirmed value.

target: Luciferin 4-monooxygenase (Photinus pyralis) (UniProt P08659); assay: qHTS profiling assay for firefly luciferase inhibitor/activator using purifed enzyme and Km concentrations of substrates (counterscreen for miR-21 project); conditions: purified FLuc, luminescence inhibition; series mostly up to 57.5 µM; also: nearly all actives have a fitted effect of over 55% in size
UniProt P08659, sequence (P08659 whole entry, looked up): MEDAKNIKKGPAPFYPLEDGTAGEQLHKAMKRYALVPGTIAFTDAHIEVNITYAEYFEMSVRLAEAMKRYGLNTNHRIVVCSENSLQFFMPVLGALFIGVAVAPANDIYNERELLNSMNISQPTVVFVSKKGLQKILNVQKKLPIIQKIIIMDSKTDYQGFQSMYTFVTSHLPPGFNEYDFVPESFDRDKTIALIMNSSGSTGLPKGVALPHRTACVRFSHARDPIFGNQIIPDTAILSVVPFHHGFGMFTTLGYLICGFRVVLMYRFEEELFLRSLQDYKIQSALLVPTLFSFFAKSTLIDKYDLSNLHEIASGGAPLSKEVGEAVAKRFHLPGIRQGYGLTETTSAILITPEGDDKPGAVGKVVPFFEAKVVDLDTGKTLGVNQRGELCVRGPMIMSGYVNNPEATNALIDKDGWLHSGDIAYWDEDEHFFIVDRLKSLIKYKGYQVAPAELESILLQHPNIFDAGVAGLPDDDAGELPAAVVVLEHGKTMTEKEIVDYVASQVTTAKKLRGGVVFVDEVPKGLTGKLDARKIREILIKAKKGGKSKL
Procedure, shortened: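 Purified P. pyralis luciferase, 10 nM final, with Km-level 10 uM D-luciferin and 10 uM ATP in 50 mM Tris acetate pH 7.5, 10 mM Mg acetate, 0.01% Tween-20, 0.05% BSA; 6-point qHTS titration about 60 µM downward; luminescence read.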
Potency is read from the fitted curve at half-maximal effect; tags tell the direction and shape of the fitted curve.

Row | Structure (SMILES) | Potency
1 | CCOC(=O)c1ccc(-n2c(CCC(=O)O)ccc2-c2cccs2)cc1 | inconclusive: 16.9 µM [inhibitor, partial curve]
2 | CCCOc1ncnc2c1sc1nc3c(cc12)COC(C)(C)C3 | inconclusive: 26.9 µM [inhibitor, single point]
3 | CSc1nc2cc3c(cc2n1C(=O)c1ccc(C)cc1)OCCO3 | inconclusive: 3.38 µM [inhibitor, partial curve, poor fit]
4 | COc1ccc(/C=N/NC(=O)c2ccoc2C)cc1OC | inconclusive: 16.9 µM [inhibitor, partial curve]
5 | COc1ccc(Cl)cc1C(=O)NCC(c1ccc(N(C)C)cc1)N1CCOCC1 (stereo not given) | inactive
6 | O=C(Nc1cc(-c2ccccc2)nn1-c1ccccc1)c1ccccc1F | inconclusive: 21.3 µM [inhibitor, partial curve, poor fit]
7 | O=[N+]([O-])c1ccc(S(=O)(=O)Nc2cccc(-c3ccc(N4CCOCC4)nn3)c2)cc1 | active: 3.38 µM
8 | COc1ccc(Nc2nnc(-c3ccc(C)c(S(=O)(=O)N4CCN(C)CC4)c3)c3ccccc23)cc1 | active: 16.9 µM
9 | COc1ccccc1NC(=O)C(=O)N/N=C(\C)CC(=O)Nc1ccccn1 | inconclusive: 21.3 µM [inhibitor, partial curve, poor fit]
10 | Cc1ccc(N=Cc2c(O)n(-c3cc(Cl)ccc3N3CCOCC3)c(=O)c3ccccc23)cc1C | inconclusive: 10.7 µM [inhibitor, partial curve]
11 | CCOc1ccccc1C1CC(=O)NC(C)=C1C(=O)OCc1ccc(C)cc1 (stereo not given) | inactive
12 | COc1ccc2sc(NC(=O)c3ccco3)nc2c1 | active: 0.757 µM
13 | CCOC(=O)c1csc(NC(=O)COc2ccc(Cl)cc2Cl)n1 | active: 23.9 µM
14 | Cc1ccc(/C=C/C(=O)O)cc1S(=O)(=O)Nc1ccccc1C(=O)O | inconclusive: 15.1 µM [inhibitor, partial curve]
15 | Cc1nc2cc(NCc3cccs3)ccc2n1C | active: 15.1 µM
16 | O=C(/C=C/c1ccc(Cl)cc1)NC(=S)NN1CCCCC1c1cccnc1 (stereo not given) | inconclusive: 19 µM [inhibitor, partial curve, poor fit]
17 | O=C(NNC(=O)c1ccccc1F)c1cccs1 | inconclusive: 23.9 µM [inhibitor, partial curve, poor fit]
18 | Cc1cc(C(=O)NNC(=O)c2ccc(Cl)cc2)c2ccccc2n1 | inactive
19 | COc1ccc(CNC(=O)CCCNC(=O)c2ccc(Cl)cc2)cc1OC | inactive
20 | O=[N+]([O-])c1ccc(N/N=C/c2c[nH]c3ccccc23)cc1 | inconclusive: 37.9 µM [inhibitor, partial curve, poor fit]
21 | c1ccc(-c2nccnc2-c2ccccc2)cc1 | inactive
22 | CCc1ccccc1NC(=O)Nc1cc(F)ccc1F | inconclusive: 37.9 µM [inhibitor, partial curve, poor fit]
23 | O=C(NC1CCCCC1)c1cc(-c2cccs2)on1 | inconclusive: 4.26 µM [inhibitor, full curve, poor fit] and inconclusive: 3.01 µM [inhibitor, full curve]
24 | COc1cccc(NC=C2C(=O)OC(C)(C)OC2=O)c1 | inconclusive: 37.9 µM [inhibitor, single point]

Row | Structure (SMILES) | Potency
25 | CN(c1ccc(OCC(=O)NC2=NCCS2)cc1)S(=O)(=O)c1ccc(F)cc1 | inconclusive: 37.9 µM [inhibitor, partial curve, poor fit]
26 | COc1ccc(C(C#N)=C2C=CC(=NO)C=C2)cc1 | active: 16.9 µM
27 | O=C(N/N=C/c1ccc(OC(=O)c2ccco2)cc1)c1ccccn1 | active: 2.69 µM
28 | Cn1nc(OC(=O)Nc2ccc(F)cc2)cc1C(F)(F)F | inconclusive: 37.9 µM [inhibitor, partial curve, poor fit]
29 | COc1ccccc1NC(=O)c1cnc2n(c1=O)CCS2 | inconclusive: 16.9 µM [inhibitor, partial curve, poor fit]
30 | CCCCOc1ccc(C(=O)NCC(=O)N2CC(C)CC(C)C2)cc1 (stereo not given) | inactive
31 | O=S(=O)(Nc1nc2cc3c(cc2nc1Cl)OCCO3)c1ccccc1 | inconclusive: 19 µM [inhibitor, partial curve]
32 | Cn1c(-c2ccc(-c3ccccc3)cc2)c[nH]c1=S | inconclusive: 8.49 µM [inhibitor, partial curve]
33 | CCCCCC(=O)c1c(C)[nH]c(C(=O)OCC)c1C | inconclusive: 21.3 µM [inhibitor, single point]
34 | Cn1c(NC(=O)CCc2ccccc2)cc(=O)n(C)c1=O | active: 13.5 µM
35 | CCCc1ccc2c(N)c(C#N)sc2n1 | inconclusive: 23.9 µM [inhibitor, single point]
36 | Cc1onc(-c2ccccc2)c1C1=N/C(=C\c2ccccc2F)C(=O)O1 | inconclusive: 15.1 µM [inhibitor, partial curve, poor fit]
37 | O=C(CCCC1=NS(=O)(=O)c2ccccc2N1)Nc1ccccc1 | inactive
38 | COc1ccc(Cl)cc1C(=O)NNC(=O)COC(=O)CCN=C1NS(=O)(=O)c2ccccc21 | inactive
39 | CCN(CC)c1ccc(C(=O)NNC(=O)c2cccn2C)cc1 | inconclusive: 26.9 µM [inhibitor, partial curve]
40 | COc1ccc(/C=C/c2nc(C#N)c(NC3CCCCC3)o2)cc1OC | inconclusive: 13.5 µM [inhibitor, partial curve, poor fit]
41 | CC(Nc1nc(-c2ccc3c(c2)NC(=O)CO3)cs1)c1ccccc1 (stereo not given) | inconclusive: 13.5 µM [inhibitor, partial curve]
42 | Cc1nc2cc3sc(C)nc3cc2s1 | inconclusive: 37.9 µM [inhibitor, partial curve, poor fit]
43 | CC(C)COc1cccc(-c2cc(C(=O)Nc3ccon3)c3ccccc3n2)c1 | inconclusive: 26.9 µM [inhibitor, single point]
44 | CCOC(=O)C1CCCN(C(=O)CCNS(=O)(=O)c2cc(Br)cnc2N)C1 (stereo not given) | inactive
45 | Cn1ccc2cc(-c3ccc4ncnc(NCc5cccc(F)c5)c4c3)ccc21 | inconclusive: 23.9 µM [inhibitor, single point]
46 | O=C(c1ccco1)N1CCCC(Nc2ccc3c(c2)OCCO3)C1 (stereo not given) | active: 23.9 µM
47 | N#C/C(=C\c1ccc2c(c1)OCCO2)C(=O)NC1CCCCC1 | active: 4.78 µM
48 | Cc1ccc(-c2cc(=O)c3cc(F)ccc3[nH]2)cc1 | active: 26.9 µM

Row | Structure (SMILES) | Potency
49 | COC(=O)c1sc(NC(=O)COc2ccccc2C)nc1C | inconclusive: 7.57 µM [inhibitor, partial curve, poor fit]
50 | CCC(=O)Nc1ccc(Cl)c(NC(=S)NC(=O)c2ccco2)c1 | inconclusive: 26.9 µM [inhibitor, partial curve, poor fit]
51 | C=CCn1c(O)c(N=NC(=O)CNC(=O)/C=C/c2ccc(OC)cc2)c2ccccc21 | inconclusive: 26.9 µM [inhibitor, single point]
52 | COc1ccc(-c2nc3nc(C)cc(Nc4ccc(C(C)=O)cc4)n3n2)cc1 | inconclusive: 5.36 µM [inhibitor, full curve]
53 | CSc1ccccc1OCc1cc(C(=O)NCCC2CCCCO2)no1 (stereo not given) | inconclusive: 23.9 µM [inhibitor, single point]
54 | O=C(NNC(=O)c1ccc2ccccc2c1O)c1cccs1 | active: 26.9 µM
55 | Oc1cccc(Nc2ccccc2)c1 | inconclusive: 5.36 µM [inhibitor, partial curve, poor fit]
56 | COc1ccc(C2=C(Nc3ccc(F)cc3)c3ccccc3C2=O)cc1 | inconclusive: 26.9 µM [inhibitor, single point]
57 | CC(C)(C)c1ccc(OCCC(=O)NC2=NCCS2)cc1 | inconclusive: 30.1 µM [inhibitor, partial curve, poor fit]
58 | COc1cc2c(cc1OC)CN(S(=O)(=O)c1ccc3c(c1)OCCO3)CC2 | inactive
59 | C/C(=N\NC(=O)c1cc(Br)ccc1O)c1cccc(NC(=O)c2ccccc2F)c1 | inconclusive: 30.1 µM [inhibitor, single point]
60 | c1ccc(C2=NN(c3ccccc3)C(c3ccco3)C2)cc1 (stereo not given) | inconclusive: 13.5 µM [inhibitor, partial curve]
61 | O=C(NOC(=O)c1c(F)cccc1Cl)c1ccc(Cl)c(Cl)c1 | inconclusive: 37.9 µM [inhibitor, single point]
62 | Cc1ccc2c(c1)c1c3n2CCNC3CCC1 (stereo not given) | inactive
63 | Cc1ccccc1CN1CCc2nc(Nc3ccc4c(c3)OCCO4)ncc2C1 | active: 13.5 µM
64 | N#Cc1cnc(Nc2ccc(F)cc2)nc1N | inconclusive: 26.9 µM [inhibitor, single point]
65 | O=C(Cc1cccs1)Nc1cccc(C(=O)Nc2ccc(C(=O)O)cc2)c1 | inconclusive: 37.9 µM [inhibitor, partial curve, poor fit]
66 | Cc1ccc(C)c(NC(=O)c2cc(-c3ccccc3O)n[nH]2)c1 | inconclusive: 8.49 µM [inhibitor, full curve]
67 | Cc1ccc2[nH]c(O)c(N=NC(=O)c3ccc(NS(=O)(=O)c4cccs4)cc3)c2c1 | active: 5.36 µM
68 | O=C(O)/C=C/C(=O)Nc1cccc2cccnc12 | inconclusive: 23.9 µM [inhibitor, partial curve, poor fit]
69 | Cc1sc(NC(=O)C2C3CCC(C3)C2C(=O)O)c(C(N)=O)c1-c1ccc(C(C)(C)C)cc1 (stereo not given) | inconclusive: 37.9 µM [inhibitor, partial curve, poor fit]
70 | Cc1ccsc1C(=O)N1CCc2ccccc2C1 | inconclusive: 19 µM [inhibitor, partial curve, poor fit]
